# According to PubChem BioAssay AID686979 (National Center for Advancing Translational Sciences (NCATS), 2013):
# Among all 420,000 compounds or so, about 50,000 (12%) were called active. This list was built around the results that the source calls inconclusive (neither active nor inactive); the mix of calls is not that of the screen. Calls follow the shape of the dose curve; as a rule, active = well fitted inhibition curve with a large enough effect; inconclusive = small, poorly fitted or top-dose-only effect; inactive = flat fitted curve, though single readings scatter. No potency is given beside an inconclusive call; the fits are too rough.
# Experiment: qHTS for Inhibitors of human tyrosyl-DNA phosphodiesterase 1 (TDP1): qHTS in cells in presence of CPT; also: nearly all actives have a fitted effect of over 55% in size
# Details: chicken DT40 Tdp1-/-;hTDP1 cells + 20 nM CPT, ATP luminescence, 48 h; activity change, negative = growth inhibition: at 46.2 µM (top of the series)
# How it was run: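 Chicken DT40 Tdp1-/- cells complemented with human TDP1, 400 cells/well, exposed to compounds plus 20 nM camptothecin for at least 48 h at 37 C; viability read as ATP content by CellTiter-Glo luminescence.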
# % is scaled to controls: 0 for no effect and ±100 for the full control effect; potency is read from the fitted curve at half-maximal effect; tags tell the direction and shape of the fitted curve.
Structure (SMILES),Potency,"activity change, negative = growth inhibition"
CCC1CCCCN1CCNC(=O)CCS(=O)(=O)c1ccc(Br)cc1 (stereo not given),inactive,
O=c1c2ccccc2c(-c2n[nH]c(=S)o2)nn1Cc1ccccc1,"inconclusive [inhibitor, single point]",
CN(C)c1ccc(C(=O)OCC(=O)Nc2ccc(S(N)(=O)=O)cc2)cc1,,inconclusive: -33.1% [inhibitor]
C/C(=N\Nc1cc(N2CCOCC2)nc(C)n1)c1ccc(F)cc1,"inconclusive [inhibitor, single point]",
COc1ccc(CNc2nc(-c3ccccc3OC)nc3ccccc23)c(OC)c1,active: 23.1 µM,
CCOc1ccc2nc(-c3ccccc3)nc(SCC(=O)Nc3ncc(C)s3)c2c1,"inconclusive [inhibitor, single point]",
N#Cc1c(NC(=O)COC(=O)c2ccc(O)cc2O)sc2c1CCC2,"inconclusive [inhibitor, partial curve]",
CC(/C=C/c1ccc(N(C)C)cc1)=N\N=C(/N)SC1CC(=O)N(c2ccc(C(=O)O)cc2)C1=O (stereo not given),"inconclusive [inhibitor, single point]",
Cc1ccc(NC(=O)Cc2nnc(SCC(=O)Nc3nncs3)n2C)cc1,inactive,
CN(C)c1ncc2ncc(=O)n(CCc3ccccc3)c2n1,active: 20.6 µM,
Nc1cc2ccncc2c2ccccc12,"inconclusive [inhibitor, partial curve]",
Cc1ccc(-c2nc3cc(C)ccc3o2)cc1,inactive,
Cc1ccc(N2C(=O)N(CC(=O)Nc3ccc([N+](=O)[O-])cc3)C(=O)C2C)cc1 (stereo not given),inactive,
CC(CNC(=O)CCC(=O)N1CCOc2ccccc21)c1ccccc1 (stereo not given),"inconclusive [inhibitor, single point]",
COc1ccc(C(C)(NC(C)=O)c2nc(/C=C/c3ccccc3)cs2)cc1 (stereo not given),"inconclusive [inhibitor, single point]",
COc1ccc(NC(=O)/C=C/c2cccc(C(F)(F)F)c2)cn1,"inconclusive [inhibitor, single point]",
CC(=O)c1ccc(N2CCN(C(=O)c3noc4c3CSc3ccccc3-4)CC2)cc1,"inconclusive [inhibitor, partial curve]",
Cc1cccc(C)c1NC(=O)CN(C)C(=O)C1=COCCO1,inactive,
O=C(Nc1ccccc1)c1cn(-c2ccccc2)nc1-c1ccccc1,"inconclusive [inhibitor, single point]",
CN(CC(=O)NC(=O)NC1CCCCC1)CC(=O)Nc1ccc(OC(F)(F)F)cc1,"inconclusive [inhibitor, single point]",
